Test results reported in the supplement of paper PMC6531468.
The other results are listed elsewhere or left out. These are enrichments in a pooled selection; single values are uncertain. Scores sum up all selected molecules that hold the word; the word was not tested alone.

Tests used:
Test in all cases: 6-mer SELEX enrichment z-score vs GST control; IMP3 is the RNA-binding protein IGF2BP3; higher = more enriched by binding
IMP3 KH1-4 = settings: construct: KH1-4 (164-579); SELEX round: R4
Procedure: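 SELEX-seq with GST-tagged IMP3 KH1-4 (Pro164-Lys579) and an N40 RNA pool, round 4. 6-mer z-score of sequence-tag enrichment normalised to the corresponding GST SELEX round; RNA k-mers written as DNA (T for U).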

IMP3 RRM1-2 = settings: construct: RRM1-2 (1-163); SELEX round: R2
Procedure: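 SELEX-seq with GST-tagged IMP3 RRM1-2 (Met1-Asn163) and an N40 RNA pool, round 2. 6-mer enrichment z-score normalised to GST SELEX. RNA written as DNA (T = U).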

IMP3 full-length = IMP3 full-length (UniProt O00425); settings: construct: FL IMP3 (1-579); SELEX round: R4
Procedure: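 SELEX-seq with GST-tagged full-length IMP3 and an N40 RNA pool, round 4. Each 6-mer is scored as an enrichment z-score of sequence tags containing it, normalised to the matching GST SELEX round. RNA written as DNA (T = U).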

IMP3 KH1-2 = settings: construct: KH1-2 (164-376); SELEX round: R4
Procedure: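 SELEX-seq with GST-tagged IMP3 KH1-2 (Pro164-Phe376) and an N40 RNA pool, round 4 (stringent 300/600 mM KCl washes). 6-mer z-score of sequence-tag enrichment normalised to the corresponding GST SELEX round; RNA k-mers written as DNA (T for U).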

IMP3 KH3-4 = settings: construct: KH3-4 (377-579); SELEX round: R4
Procedure: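 SELEX-seq with GST-tagged IMP3 KH3-4 (Pro377-Lys579) and an N40 RNA pool, round 4. 6-mer z-score of sequence-tag enrichment normalised to the corresponding GST SELEX round; RNA k-mers written as DNA (T for U).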

UniProt O00425, sequence (O00425 whole entry): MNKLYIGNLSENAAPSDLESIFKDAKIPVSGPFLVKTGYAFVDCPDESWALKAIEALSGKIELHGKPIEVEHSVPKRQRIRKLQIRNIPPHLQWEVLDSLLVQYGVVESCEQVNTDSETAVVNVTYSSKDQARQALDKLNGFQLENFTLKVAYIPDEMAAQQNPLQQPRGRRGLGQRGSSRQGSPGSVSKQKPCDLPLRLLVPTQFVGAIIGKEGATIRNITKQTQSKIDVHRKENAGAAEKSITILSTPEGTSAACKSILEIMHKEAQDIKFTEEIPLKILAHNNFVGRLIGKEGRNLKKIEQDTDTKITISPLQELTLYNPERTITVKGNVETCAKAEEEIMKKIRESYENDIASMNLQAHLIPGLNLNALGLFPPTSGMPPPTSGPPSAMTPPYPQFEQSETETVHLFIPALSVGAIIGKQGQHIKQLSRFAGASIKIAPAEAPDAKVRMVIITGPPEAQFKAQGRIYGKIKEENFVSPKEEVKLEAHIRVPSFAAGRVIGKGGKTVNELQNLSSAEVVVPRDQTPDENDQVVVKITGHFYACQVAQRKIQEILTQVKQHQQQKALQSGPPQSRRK
IMP3 KH3-4, sequence (chain, as listed by the source): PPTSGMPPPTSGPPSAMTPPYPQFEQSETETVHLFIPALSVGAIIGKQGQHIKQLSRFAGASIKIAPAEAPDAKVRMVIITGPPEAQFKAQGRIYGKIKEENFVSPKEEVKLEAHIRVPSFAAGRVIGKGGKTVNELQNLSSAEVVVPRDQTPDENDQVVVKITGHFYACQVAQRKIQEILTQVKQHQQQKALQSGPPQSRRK
IMP3 KH1-2, sequence (chain, as listed by the source): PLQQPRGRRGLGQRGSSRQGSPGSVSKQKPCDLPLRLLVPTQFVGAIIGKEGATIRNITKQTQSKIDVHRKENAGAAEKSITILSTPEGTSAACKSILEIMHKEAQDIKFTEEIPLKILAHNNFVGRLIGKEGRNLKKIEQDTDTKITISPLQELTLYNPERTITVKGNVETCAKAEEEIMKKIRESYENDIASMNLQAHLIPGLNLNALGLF
IMP3 RRM1-2, sequence (chain, as listed by the source): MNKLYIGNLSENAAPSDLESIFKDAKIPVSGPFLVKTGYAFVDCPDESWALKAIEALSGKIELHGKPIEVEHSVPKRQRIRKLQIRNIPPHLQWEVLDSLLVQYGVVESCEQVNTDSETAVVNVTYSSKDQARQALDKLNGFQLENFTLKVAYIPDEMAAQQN
IMP3 KH1-4, sequence (chain, as listed by the source): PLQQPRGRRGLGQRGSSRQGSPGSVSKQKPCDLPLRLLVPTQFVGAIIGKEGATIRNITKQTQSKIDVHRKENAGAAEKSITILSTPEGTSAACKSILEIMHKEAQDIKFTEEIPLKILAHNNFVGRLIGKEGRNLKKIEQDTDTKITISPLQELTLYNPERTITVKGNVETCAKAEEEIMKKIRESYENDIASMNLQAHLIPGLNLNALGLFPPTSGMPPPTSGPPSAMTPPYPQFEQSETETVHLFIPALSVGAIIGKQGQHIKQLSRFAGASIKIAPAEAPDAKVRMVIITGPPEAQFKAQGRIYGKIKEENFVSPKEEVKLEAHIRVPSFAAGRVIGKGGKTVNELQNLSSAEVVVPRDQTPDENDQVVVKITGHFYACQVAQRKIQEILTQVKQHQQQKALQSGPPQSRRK

| Sequence | 6-mer SELEX enrichment z-score (IMP3 KH1-4) | 6-mer SELEX enrichment z-score (IMP3 RRM1-2) | 6-mer SELEX enrichment z-score (IMP3 full-length) | 6-mer SELEX enrichment z-score (IMP3 KH1-2) | 6-mer SELEX enrichment z-score (IMP3 KH3-4) |
| --- | --- | --- | --- | --- | --- |
| AACCAC | -0.31 | 1.08 | -0.533 | 0.043 | -1.01 |
| TAATAT | 1.58 | -0.062 | 0.235 | 1.5 | 2.39 |
| AGTAGG | 0.254 | 0.346 | 0.258 | 0.22 | 0.416 |
| TCTAAA | -0.156 | -0.628 | -0.734 | -0.191 | 0.012 |
| CGAGAT | -1.03 | -0.591 | -0.67 | -0.916 | -0.766 |
| TGCGTC | -0.369 | 0.569 | 0.445 | -0.19 | -0.104 |
| ATATGC | 1.21 | -0.124 | 0.175 | 0.878 | 1.18 |
| GCTTCT | -0.116 | 0.459 | 0.178 | 0.034 | 0.032 |
| AAGCGG | -0.296 | -0.607 | -0.002 | -0.374 | 0.047 |
| TAGAAT | 0.835 | -0.464 | -0.151 | 0.649 | 1.44 |
| AAACGC | -1.27 | -1.36 | -1.61 | -1.17 | -1.27 |
| TCTGCG | -0.667 | 0.266 | -0.114 | -0.536 | -0.518 |
| AGTATA | 0.561 | -0.176 | 0.014 | 0.479 | 1.01 |
| AGTCCT | 0.195 | -0.117 | -0.186 | 0.038 | -0.084 |
| AATGAC | 0.645 | -1.33 | -0.77 | 0.384 | 0.98 |
| CGCGAA | -0.85 | -0.967 | -0.479 | -0.728 | -0.79 |
| GTTAAA | -0.319 | -0.804 | -0.743 | -0.411 | 0.023 |
| GAATTG | 0.373 | -0.665 | -0.436 | 0.176 | 0.658 |
| TGCGCA | 0.078 | 0.23 | 0.431 | 0.104 | -0.041 |
| GTTATA | 0.387 | -0.016 | -0.021 | 0.331 | 0.577 |
